Results: US12630643B2, “CD40 binding protein, bispecific conjugate thereof and method of treating cancer” (priority 2020, dated 2026)

Tests used:
[1] = test system: human monocyte-derived DC (MoDC); assay: MoDC activation, flow cytometry of surface activation markers (t-SNE); conditions: Example 12; 200 nM
[2] = test system: human monocyte-derived DC (MoDC); assay: MoDC activation, IL-12p40 ELISA; type: cell-based; conditions: for IL-12 production: Example 12, 1:2 serial dilutions from 200 nM, 48 h; for IL-12 production (agonistic potential): Example 13, 100-12.5 nM, 48 hours
human moDCs = assay: Dendritic cell microscopy (clustering); type: cell-based; conditions: 200 nM and 1.6 nM

B1: X-SM083-bi-26: bispecific: Y-SM083-B8 IgG2, FITC8 scFv at CH3, (G4S)2 linker (antibody)
heavy: [letters of about 100 residues omitted]YVWGIDYWGQGTLVTVSSASTKGPSVFPLAPCSRSTSESTAALGCLVKDYFPEPVTVSWNSGALTSGVHTFPAVLQSSGLYSLSSVVTVPSSNFGTQTYTCNVDHKPSNTKVDKTVERKCCVECPPCPAPPVAGPSVFLFPPKPKDTLMISRTPEVTCVVVDVSHEDPEVQFNWYVDGVEVHNAKTKPREEQFNSTFRVVSVLTVVHQDWLNGKEYKCKVSNKGLPAPIEKTISKTKGQPREPQVYTLPPSREEMTKNQVSLTCLVKGFYPSDIAVEWESNGQPENNYKTTPPMLDSDGSFFLYSKLTVDKSRWQQGNVFSCSVMHEALHNHYTQKSLSLSPGKGGGGSGGGGSEVQLLESGGGLVQPGGSLRLSCAASGFTFSNYWMSWVRQAPGKGLEWVSGISGNGGYTYFADSVKDRFTISRDNSKNTLYLQMNSLRAEDTAVYYCAGGDGSGWSFWGQGTLVTVSSGGGGSGGGGSGGGGSGGGGSQSVLTQPPSASGTPGQRVTISCTGSSSNIGAGYDVHWYQQLPGTAPKLLIYGNNNRPSGVPDRFSGSKSGTSASLAISGLRSEDEADYYCAAWDDSLSGRVFGGGTKLTVL
light: DIQMTQSPSSLSASVGDRVTITCRASQSISSYLNWYQQKPGKAPKLLIYAASSLQSGVPSRFSGSGSGTDFTLTISSLQPEDFATYYCQQGYGYPPFTFGQGTKLEIKRTVAAPSVFIFPPSDEQLKSGTASVVCLLNNFYPREAKVQWKVDNALQSGNSQESVTEQDSKDSTYSLSSTLTLSKADYEKHKVYACEVTHQGLSSPVTKSFNRGEC
- CD83 and CD86 expression [1]: undetectable or almost undetectable levels of CD83 and CD86 expression
- HLA-DR expression [1]: minimal level of HLA-DR expression
- IL-12 production [2]: did not induce a detectable level of IL-12 production at any antibody concentration
- dendritic cell clustering (activation) (human moDCs): induced almost no clustering

B2: X-SM083-bi-23: bispecific: Y-SM083-A9 IgG2, FITC8 scFv at CH3, (G4S)2 linker (antibody)
heavy: EVQLLESGGGLVQPGGSLRLSCAASGFTFSSYAMSWVRQAPGKGLEWVSGISGYSGSTYYADSVKGRFTISRDNSKNTLYLQMNSLRAEDTAVYYCARYYSYYGYYYFDYWGQGTLVTVSSASTKGPSVFPLAPCSRSTSESTAALGCLVKDYFPEPVTVSWNSGALTSGVHTFPAVLQSSGLYSLSSVVTVPSSNFGTQTYTCNVDHKPSNTKVDKTVERKCCVECPPCPAPPVAGPSVFLFPPKPKDTLMISRTPEVTCVVVDVSHEDPEVQFNWYVDGVEVHNAKTKPREEQFNSTFRVVSVLTVVHQDWLNGKEYKCKVSNKGLPAPIEKTISKTKGQPREPQVYTLPPSREEMTKNQVSLTCLVKGFYPSDIAVEWESNGQPENNYKTTPPMLDSDGSFFLYSKLTVDKSRWQQGNVFSCSVMHEALHNHYTQKSLSLSPGKGGGGSGGGGSEVQLLESGGGLVQPGGSLRLSCAASGFTFSNYWMSWVRQAPGKGLEWVSGISGNGGYTYFADSVKDRFTISRDNSKNTLYLQMNSLRAEDTAVYYCAGGDGSGWSFWGQGTLVTVSSGGGGSGGGGSGGGGSGGGGSQSVLTQPPSASGTPGQRVTISCTGSSSNIGAGYDVHWYQQLPGTAPKLLIYGNNNRPSGVPDRFSGSKSGTSASLAISGLRSEDEADYYCAAWDDSLSGRVFGGGTKLTVL
light: DIQMTQSPSSLSASVGDRVTITCRASQSISSYLNWYQQKPGKAPKLLIYAASSLQSGVPSRFSGSGSGTDFTLTISSLQPEDFATYYCQQGYPYPFTFGQGTKLEIKRTVAAPSVFIFPPSDEQLKSGTASVVCLLNNFYPREAKVQWKVDNALQSGNSQESVTEQDSKDSTYSLSSTLTLSKADYEKHKVYACEVTHQGLSSPVTKSFNRGEC
- expression of dendritic cell surface activation markers HLA-DR, CD83 and CD86 [1]: retained most of the agonistic activity of A9
- IL-12 production [2]: induced the highest levels of IL-12 among the bispecific antibodies derived from the A9 clone
- IL-12 production (agonistic potential) [2]: retained their respective agonistic potential in a dose-dependent manner

B3: X-SM083-bi-31: bispecific: Y-SM083-A9 IgG2 C127S, FITC8 scFv at CH3, G4S linker (antibody)
heavy: EVQLLESGGGLVQPGGSLRLSCAASGFTFSSYAMSWVRQAPGKGLEWVSGISGYSGSTYYADSVKGRFTISRDNSKNTLYLQMNSLRAEDTAVYYCARYYSYYGYYYFDYWGQGTLVTVSSASTKGPSVFPLAPSSRSTSESTAALGCLVKDYFPEPVTVSWNSGALTSGVHTFPAVLQSSGLYSLSSVVTVPSSNFGTQTYTCNVDHKPSNTKVDKTVERKCCVECPPCPAPPVAGPSVFLFPPKPKDTLMISRTPEVTCVVVDVSHEDPEVQFNWYVDGVEVHNAKTKPREEQFNSTFRVVSVLTVVHQDWLNGKEYKCKVSNKGLPAPIEKTISKTKGQPREPQVYTLPPSREEMTKNQVSLTCLVKGFYPSDIAVEWESNGQPENNYKTTPPMLDSDGSFFLYSKLTVDKSRWQQGNVFSCSVMHEALHNHYTQKSLSLSPGKGGGGSEVQLLESGGGLVQPGGSLRLSCAASGFTFSNYWMSWVRQAPGKGLEWVSGISGNGGYTYFADSVKDRFTISRDNSKNTLYLQMNSLRAEDTAVYYCAGGDGSGWSFWGQGTLVTVSSGGGGSGGGGSGGGGSGGGGSQSVLTQPPSASGTPGQRVTISCTGSSSNIGAGYDVHWYQQLPGTAPKLLIYGNNNRPSGVPDRFSGSKSGTSASLAISGLRSEDEADYYCAAWDDSLSGRVFGGGTKLTVL
light: B2 light
- IL-12 production (agonistic potential) [2]: retained their respective agonistic potential in a dose-dependent manner

B4: X-SM083-bi-32: bispecific: Y-SM083-A9 IgG2 C127S, FITC8 scFv at CH3, (G4S)4 linker (antibody)
heavy: EVQLLESGGGLVQPGGSLRLSCAASGFTFSSYAMSWVRQAPGKGLEWVSGISGYSGSTYYADSVKGRFTISRDNSKNTLYLQMNSLRAEDTAVYYCARYYSYYGYYYFDYWGQGTLVTVSSASTKGPSVFPLAPSSRSTSESTAALGCLVKDYFPEPVTVSWNSGALTSGVHTFPAVLQSSGLYSLSSVVTVPSSNFGTQTYTCNVDHKPSNTKVDKTVERKCCVECPPCPAPPVAGPSVFLFPPKPKDTLMISRTPEVTCVVVDVSHEDPEVQFNWYVDGVEVHNAKTKPREEQFNSTFRVVSVLTVVHQDWLNGKEYKCKVSNKGLPAPIEKTISKTKGQPREPQVYTLPPSREEMTKNQVSLTCLVKGFYPSDIAVEWESNGQPENNYKTTPPMLDSDGSFFLYSKLTVDKSRWQQGNVFSCSVMHEALHNHYTQKSLSLSPGKGGGSGGGSGGGSGGGSEVQLLESGGGLVQPGGSLRLSCAASGFTFSNYWMSWVRQAPGKGLEWVSGISGNGGYTYFADSVKDRFTISRDNSKNTLYLQMNSLRAEDTAVYYCAGGDGSGWSFWGQGTLVTVSSGGGGSGGGGSGGGGSGGGGSQSVLTQPPSASGTPGQRVTISCTGSSSNIGAGYDVHWYQQLPGTAPKLLIYGNNNRPSGVPDRFSGSKSGTSASLAISGLRSEDEADYYCAAWDDSLSGRVFGGGTKLTVL
light: B2 light
- IL-12 production (agonistic potential) [2]: retained their respective agonistic potential in a dose-dependent manner

B5: X-SM083-bi-33: bispecific: Y-SM083-A9 IgG2 C127S, FITC8 scFv at CL, (G4S)2 linker (antibody)
heavy: EVQLLESGGGLVQPGGSLRLSCAASGFTFSSYAMSWVRQAPGKGLEWVSGISGYSGSTYYADSVKGRFTISRDNSKNTLYLQMNSLRAEDTAVYYCARYYSYYGYYYFDYWGQGTLVTVSSASTKGPSVFPLAPSSRSTSESTAALGCLVKDYFPEPVTVSWNSGALTSGVHTFPAVLQSSGLYSLSSVVTVPSSNFGTQTYTCNVDHKPSNTKVDKTVERKCCVECPPCPAPPVAGPSVFLFPPKPKDTLMISRTPEVTCVVVDVSHEDPEVQFNWYVDGVEVHNAKTKPREEQFNSTFRVVSVLTVVHQDWLNGKEYKCKVSNKGLPAPIEKTISKTKGQPREPQVYTLPPSREEMTKNQVSLTCLVKGFYPSDIAVEWESNGQPENNYKTTPPMLDSDGSFFLYSKLTVDKSRWQQGNVFSCSVMHEALHNHYTQKSLSLSPGK
light: DIQMTQSPSSLSASVGDRVTITCRASQSISSYLNWYQQKPGKAPKLLIYAASSLQSGVPSRFSGSGSGTDFTLTISSLQPEDFATYYCQQGYPYPFTFGQGTKLEIKRTVAAPSVFIFPPSDEQLKSGTASVVCLLNNFYPREAKVQWKVDNALQSGNSQESVTEQDSKDSTYSLSSTLTLSKADYEKHKVYACEVTHQGLSSPVTKSFNRGECGGGGSGGGGSEVQLLESGGGLVQPGGSLRLSCAASGFTFSNYWMSWVRQAPGKGLEWVSGISGNGGYTYFADSVKDRFTISRDNSKNTLYLQMNSLRAEDTAVYYCAGGDGSGWSFWGQGTLVTVSSGGGGSGGGGSGGGGSGGGGSQSVLTQPPSASGTPGQRVTISCTGSSSNIGAGYDVHWYQQLPGTAPKLLIYGNNNRPSGVPDRFSGSKSGTSASLAISGLRSEDEADYYCAAWDDSLSGRVFGGGTKLTVL
- IL-12 production (agonistic potential) [2]: retained their respective agonistic potential in a dose-dependent manner
